Measurements: the supplement of paper PMC3334620
The full ranking holds about 33,000 sequences; the median of “E-score (-0.5 to 0.5)” is about -0.054, and the highest 2% start at about 0.35. This is one part of the list.

Target: T1, Stb5 (UniProt P38699)
T1 sequence: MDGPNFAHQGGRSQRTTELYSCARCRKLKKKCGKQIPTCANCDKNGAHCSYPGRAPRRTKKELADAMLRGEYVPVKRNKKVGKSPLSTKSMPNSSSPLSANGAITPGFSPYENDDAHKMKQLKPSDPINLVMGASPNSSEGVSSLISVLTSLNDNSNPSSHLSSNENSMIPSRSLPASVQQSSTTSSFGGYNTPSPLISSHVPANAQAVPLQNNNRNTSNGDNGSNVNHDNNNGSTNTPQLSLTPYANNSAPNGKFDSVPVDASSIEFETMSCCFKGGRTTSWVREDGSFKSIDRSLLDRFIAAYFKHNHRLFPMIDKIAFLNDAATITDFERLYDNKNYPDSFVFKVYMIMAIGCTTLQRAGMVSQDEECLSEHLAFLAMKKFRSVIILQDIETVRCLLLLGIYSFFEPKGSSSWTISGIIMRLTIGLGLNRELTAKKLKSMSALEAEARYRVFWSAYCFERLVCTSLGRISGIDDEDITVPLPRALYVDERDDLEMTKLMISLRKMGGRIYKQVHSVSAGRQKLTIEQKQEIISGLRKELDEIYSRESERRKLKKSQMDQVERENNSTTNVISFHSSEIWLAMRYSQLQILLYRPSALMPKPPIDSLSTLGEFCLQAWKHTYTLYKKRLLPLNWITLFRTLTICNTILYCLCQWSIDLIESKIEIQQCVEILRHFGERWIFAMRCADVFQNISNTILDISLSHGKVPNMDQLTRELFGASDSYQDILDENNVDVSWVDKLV
Test: PBM E-score (8-mer binding enrichment) (E-score (-0.5 to 0.5)); higher = stronger / more preferred TF binding; most listed sequences are background and not binding sites
Conditions: protein concentration: 200 nM; construct: GST-full length
Procedure, shortened: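 Universal all-10-mer Agilent arrays, fresh or stripped once, were converted to double-stranded form by primer extension. GST-tagged yeast transcription factors from PURExpress in vitro transcription/translation, full-length or DNA-binding domain only, were applied at about 100-200 nM and detected with fluorescent anti-GST. After masliner normalisation, the Universal PBM Analysis Suite scored each ungapped eight-base word together with its reverse complement by E-score.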

Sequence | PBM E-score
CGTAGAGC | -0.0725
CGGACACC | 0.155
TAGTCTGA | -0.232
AGCGGAGC | 0.31
GGGCGTTA | 0.0794
GTCCGACA | 0.403
GGCAAATA | 0.16
CATCGGGA | 0.261
ACACCGAC | 0.466
ATGATTTA | -0.148
GTCCCATA | -0.0984
CAGGAGGG | -0.267
CCGCCGCA | 0.301
CGTCCACA | -0.101
CTCTCATC | -0.23
CCCGGATA | 0.113
CGGATCAA | 0.139
GTAATATA | 0.141
AACCTTCT | -0.165
CGGGCACG | 0.0792
ACTGGGCA | -0.176
ACGTCGCA | -0.182
GTATGCTA | 0.0865
CCGCTAGG | 0.318
CACCACAA | -0.0283

Sequence | PBM E-score
ACAAACCT | -0.153
AATTTCAA | -0.0884
CTCGTAAC | 0.0106
GTAAGAAC | 0.0951
TATCACGA | -0.177
ATATAAGG | 0.146
CCATCAGG | -0.0653
GGGCTGAA | 0.0986
ATCGATTC | -0.187
CGTTGCCA | -0.0921
CACACACG | 0.162
AGAGATAA | -0.0777
AGTTTTTC | -0.00974
CGTGGACC | 0.136
AACGCAGA | -0.102
ATCGGCTG | -0.016
GTGTCCCA | 0.0445
AGGTCGAG | -0.275
CAGCGAAC | -0.106
GGAGGCAA | 0.128
GCGCAATA | 0.0679
ATCAGGGG | -0.316
AGAAGGGC | -0.0504
GGCACATA | 0.0318
CCGGGCGA | 0.0763

Sequence | PBM E-score
GCATAATA | 0.0352
AGGACGGA | 0.168
AAGCAGGG | -0.152
AAACCGAG | -0.0377
ATGACACG | 0.0248
AGCGTCGC | -0.0135
ACAATTTG | -0.0255
AAACTGTA | -0.0312
GGTGGGGA | -0.126
CACTAAAC | 0.0275
AAACGGCG | 0.236
AGTGTAAT | -0.107
AAATATAA | 0.232
CCACGAGG | -0.223
CTGTCCAC | -0.102
ACTACAGC | 0.037
GCCAGCAC | -0.126
GTTAGGAA | 0.0588
TCCGGAAA | 0.119
TCGACGAA | -0.306
CGCACCCG | 0.113
CACATGAG | -0.216
ATGCCCGC | 0.366
TAGACGCA | -0.14
ACTTAAAC | -0.0316

Sequence | PBM E-score
CAACTACC | 0.0237
CGAGCGCA | 0.11
AGCGAGGA | -0.0136
CCGGGCGC | 0.259
CATGAAAG | -0.0152
CATACGGA | 0.224
AGGGCAAA | -0.105
ATGTGTTC | -0.157
GCTGCAAC | -0.0572
GCGCAAAC | -0.107
AGACGCAA | -0.048
AAATAACG | 0.154
GCAGAGGC | -0.0538
CGGGCGAG | -0.156
ATCGCCTG | -0.215
GGGCAGAA | -0.0851
GGATTCTA | 0.119
ATTGAGAC | -0.0695
CACTTTAG | -0.063
GGATGTAA | 0.272
ATCTGTTC | -0.189
CTCGTAGC | -0.0277
AGCAGATC | -0.35
ATATTTGC | 0.0728
ATCGCAGG | -0.234

Sequence | PBM E-score
GAGCGTGC | -0.0824
CGTCTCCC | 0.0115
AACACGCA | -0.0648
AGTACAAT | -0.0302
GCATGCGC | -0.0361
AGACTTGA | -0.246
TGTTGGAA | -0.0526
CATGCCCC | 0.0218
GGCTCAAC | -0.142
TGTGCAAA | -0.143
CATATCTA | -0.03
CCGAAATC | 0.152
CCCTTACG | -0.0846
CGTCTTAC | -0.183
AGCGGGTA | 0.0916
CAACAACC | -0.0208
CCTCTGAC | -0.00317
AAGATCAT | -0.0362
CTAAGTTA | -0.142
CGAGCCAC | -0.14
TCCTCAGA | -0.0929
CGCGCAAG | 0.0272
ACATTTTG | -0.253
ACAGAAGA | -0.126
GTACGCTA | -0.033

Sequence | PBM E-score
CCACAAAG | -0.0447
CCGAATAA | 0.103
ACCCACAT | 0.111
ACGGTGTG | 0.288
AATCTTCT | 0.0418
AGAATCCG | 0.208
TCGGGAGA | -0.0198
ATGCCCCA | -0.147
CGACTAGC | 0.189
AGACACGG | 0.163
CTGTCTTA | 0.0377
CAAGGAGG | -0.182
AGCCGAGA | -0.0727
GGCACCCC | 0.00197
CTGCGAAG | -0.308
AACAGAGC | -0.128
CCGCTGCA | 0.201
ATCAGGAA | -0.203
ATAGACGC | 0.123
CTGTGACA | -0.171
AACATCTG | 0.0176
ATGGCTTA | -0.119
TTCACGAA | 0.0251
ACCTATCG | 0.208
ACAAGGGG | -0.206

Sequence | PBM E-score
TACTTTAA | -0.0822
AGGGCTTC | -0.317
GGCCGATA | 0.266
ATCAAGAT | 0.0647
GCCATTAC | 0.0843
CAGGCCCC | -0.164
CATTCCGG | 0.096
CCAATATA | -0.07
GCTATAGC | 0.169
CAGCAATA | -0.0729
CCCCAGTC | -0.183
AAGCTAGG | -0.0484
GCCCTTTA | 0.0391
GCTTGTTA | 0.00248
AATAAGCT | 0.0419
ACCACCAT | -0.138
GATTTAAA | 0.00462
CGTCTTGC | 0.0134
AGATGCCG | 0.323
AAGTAGGC | -0.125
AGGGGATG | -0.119
ACGATGGA | -0.152
